The supplement of paper PMC10126150
Values marked as one replicate rest on one cluster of the flow cell; about a third of the high ones do not repeat.

tested on: ATP; assay: switch fluorescence ratio, 500 uM ATP over buffer (Cy3 cluster intensity, sum of 5 cycles each) (fold (ratio)); higher = stronger signal-on switching upon ATP binding; sequences stand for … in TCGTCGGCAGCGTCAGATGTGTATAAGAGACAGTTTTTTTTTTTTTTTTTTTTTTTTT…TC; details: aptamer strand: ATP DNA aptamer (quencher-CACCTGGGGGAGTATTGCGGAGGAAGG + anchor), 100 nM annealed; ATP concentration: 500 uM; one replicate
Method in brief: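 Imaging in selection buffer was followed by imaging after 15 min with 500 uM ATP at 22 °C, for Cy3-labelled switching-strand clusters annealed to 100 nM quencher-labelled ATP aptamer on a modified Illumina MiSeq flow-cell. Five of these buffer/ATP cycles ran, separated by NaOH stripping and re-annealing. The fluorescence ratio per cluster is summed target-cycle over summed buffer-cycle Cy3 intensity, averaged per switch-domain sequence; clusters outside 100-1000 RFU were removed.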
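Also: ATP exposure 15 min at 22 °C before imaging.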

Sequence | switch fluorescence ratio
GCATCAAATT | 0.995
GTTGGATTCG | 0.981
AGTACGTG | 0.987
TCAAAATCAC | 1.11
TCGTAACTAG | 1.01
GTTAGTAGGG | 0.938
CGTAGTATGC | 1.4
ACGGTAAGGT | 1.1
CTTGATTACT | 1.02
ATTTGTCGGT | 1.05
GAGGATATTG | 1
TTCAGCAAGT | 2.55
CGAGAGAGCT | 1.03
GAATCTACGC | 1.12
GGTGAGAGGC | 1.05
CTGGCGCGTA | 1.03
ATCATCCAGA | 0.976
TCCGACCCTG | 1.06
GAGGCGCGGG | 0.956
TTACCCCGTA | 0.989
AGATCGAGGT | 1.05
TGTATATGT | 0.993
ACAAGGGAGG | 0.993

Sequence | switch fluorescence ratio
CAGCTGGAGG | 1.01
CGCTAAAACC | 1.13
TACAAAGCAT | 1.13
GCCTAGGGTC | 0.975
CAGCCGCCGG | 1.03
TCACTAGTAG | 0.979
AGATAATGCC | 1.03
ACATATTCTC | 1.02
TTTTGTGTAA | 0.95
CGGTTATGCT | 1.04
GAATGCTGGG | 1.03
TTACTTTCGG | 0.988
GTATCAGATT | 1.02
AATGTTCCAC | 0.962
CGCGATGGC | 2.54
TAAAGGAGCT | 1.04
CTCTACATTG | 1.01
GTGCGCGAA | 1.02
TTAAAGTCAG | 0.996
TTCCTTGTCA | 1.01
CCCAGCTGAT | 1.19
CTTCGTCTCC | 1.57
TCATTTCTTG | 0.963

Sequence | switch fluorescence ratio
CACTTTAGAG | 0.955
CGGAGTCACT | 1.11
TGGTCCGCTG | 1.04
TGGCCGAGAG | 1.01
GTCCCGAAAG | 1.16
CTCCACCGAT | 1.41
ACAGTCATAC | 1.33
GATACCTATA | 1
GGCGCCCCTA | 1.01
AAAACGCACG | 1.23
CGGACCTCCT | 1.13
GATTGCCGAG | 1.01
AACACAGTGC | 1.06
AATCAGAAGA | 1.01
GTGTGTTATA | 0.969
GAAGGGTTTT | 0.998
CCGTGATAGC | 2.21
CGCTCTGCT | 1.24
GATTCGAACA | 0.995
CCGAGCCTGT | 1.59
CGGCAGTTTG | 1.02
CTAGCGCCGA | 0.962
AATGACGGGA | 1.05

Sequence | switch fluorescence ratio
GAATGAGTTT | 0.979
CTCGCTAGTG | 1.05
ATCATGTATG | 0.982
GGGTCAGCCA | 0.993
GGGAAAGTCT | 1.06
ACATAGGAGA | 1.01
GGTGCATAGG | 1.02
GAATCGTGAC | 1.04
GCGTTACAGC | 0.963
CCTAGGATCA | 1.01
GCCGACAGCA | 1.21
TACTCTCAGG | 1.51
GTTGCGGGGA | 1.01
AGTAGTATCG | 0.974
TAAGTGAGAT | 0.973
GTGCTCGCGA | 1.16
TCCGGGATAG | 4.59
CATTGTTGGG | 0.982
ATAATAGTTC | 1.05
GGTATATACC | 1.07
GGTATCATGG | 0.998
TATGATTCCT | 1.07
CATCTCGGGA | 0.989

Sequence | switch fluorescence ratio
CAAATTAATG | 0.981
GCGGGCCTAG | 1.02
CTTGGTCGAA | 0.945
CTGAGTTTAA | 1.01
ACCGGCGGCC | 1.03
GGAACGAGTG | 0.995
AAAAAGCAAT | 1.28
GGCGCGGTTC | 1.1
GCCAGGATGT | 1.12
CGCTCAGTGC | 1.22
GAGTAAAGCC | 1.01
TGCAAACCGA | 1.72
AAGATCGCTC | 0.971
CAGCATGTCT | 0.999
ACGTGGAAGT | 0.969
AATTCAAAGT | 0.964
TGTTGCTTCA | 1
AAATGCTGAC | 1.09
TAACAATGAG | 0.992
CCTAAAATCC | 1.09
TCACACTTCG | 1.04
GGGTACCCTT | 1.02
TGACTATTTC | 0.982

Sequence | switch fluorescence ratio
ATCCCCGTT | 1.05
AATTAACGTC | 1.02
GGCGAATCTT | 1.06
TATCTTGTCT | 0.999
CCGCCTCAAG | 4.1
TGCAGGCATC | 0.96
GGTGTTAAA | 0.955
ATATTTTGGA | 1.03
CTTGAGGACG | 1.14
CGGGAGGCCA | 0.953
CTTACGTACT | 1.63
CTGTGACGAC | 1.03
GAACCTTTCT | 3.03
GTTTTCCAGT | 0.982
GGGGATATAG | 1.03
GGACGGGGCT | 0.962
CGCCCTTGTT | 1.03
CTACGTCGTT | 1.02
GTGCATTGGG | 1.02
GACACAAGTC | 1.01
CGTCCCTA | 0.987
AATGATAGAC | 1.06
AGTCGGGCA | 1.02

Sequence | switch fluorescence ratio
AAAATACCGC | 0.993
ATAGTGTGCG | 0.995
ATCCGTTCAC | 1.33
GGTGAGCCGT | 0.866
AGGGCGCTGT | 0.985
CGGTAGACGG | 1.01
TTAAGAAAAT | 0.993
TACCTAGCGT | 1
CAGTCTTGAG | 0.997
TTGTGAAAGT | 0.977
AGACTCCTGG | 1.04
AAGTGCATTT | 1.02
AAACCGGGAT | 1.04
CACCGATATT | 1.1
CACGATGGGA | 1.06
AAATTTCAAG | 0.977
AGTACCGCG | 1.02
ACTGTCTGGG | 1
TTCGGTGTTC | 1.03
